Over roughly 33,000 sequences, “E-score (-0.5 to 0.5)” has its median near -0.01; the highest 2% begin near 0.26. Some of the results follow.
These sequences were tested against Ste12 (UniProt P13574) (assay: PBM E-score (8-mer binding enrichment) (E-score (-0.5 to 0.5)); higher = stronger / more preferred TF binding; most listed sequences are background and not binding sites). Details: protein concentration: 200 nM; construct: GST-DNA-binding domain.
How it was run: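 For each ungapped eight-base word taken together with its reverse complement, the Universal PBM Analysis Suite assigned an E-score. Binding data came from GST-tagged yeast transcription factors, applied at about 100-200 nM, on universal all-10-mer Agilent arrays made double-stranded by primer extension. Fluorescent anti-GST marked bound protein, and scans were normalised with masliner.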

Going from CAAACGAC to CATCCATG, the “PBM E-score” value falls from 0.128 to -0.0612.

Compared with GACCGGAA, GATCGCCA is higher in “PBM E-score” value: -0.0322 for the first, 0.0185 for the second.

Compared with TGTCGGAA, AGCCCGCG is higher in “PBM E-score” value: -0.0406 for the first, 0.0712 for the second.

First: ATTTTTTA
Second: AATGTATG
The “PBM E-score” value of the first is higher: 0.331 for the first, 0.174 for the second.

Compared with GGGAAACA, CCGAACGA is lower in “PBM E-score” value: 0.132 for the first, -0.0219 for the second.

First: CGCGCGCC
Second: CAAAACGC
The “PBM E-score” value of the first is lower: 0.157 for the first, 0.229 for the second.

Going from CAATCACC to AAGATGAC, the “PBM E-score” value falls from -0.0166 to -0.121.

First: AGATTGAG
Second: GGAAGTGA
The “PBM E-score” value of the first is higher: 0.0985 for the first, 0.0285 for the second.

Going from CAGTATAG to AAAGATGA, the “PBM E-score” value falls from 0.0851 to 0.0383.

Compared with CACACGGC, ACTAAATC is higher in “PBM E-score” value: -0.117 for the first, 0.135 for the second.

Going from CTGTTAGC to GCGGGAGA, the “PBM E-score” value falls from 0.0275 to -0.122.

Compared with GCAATTGA, TCATCCAA is higher in “PBM E-score” value: 0.0532 for the first, 0.0613 for the second.

First: AATGAACT
Second: GCCTGCGA
The “PBM E-score” value of the first is higher: 0.138 for the first, -0.0785 for the second.

First: CGTGTTTA
Second: CGCGGACA
The “PBM E-score” value of the first is higher: 0.0319 for the first, -0.0451 for the second.

Compared with CGCTTTAC, AACGGGGA is higher in “PBM E-score” value: -0.237 for the first, 0.0804 for the second.

Going from GCCAAGGA to AATTAGGA, the “PBM E-score” value rises from -0.298 to 0.145.

First: AATTTTTA
Second: AACACCCG
The “PBM E-score” value of the first is higher: 0.283 for the first, 0.151 for the second.

Going from ACACCGCA to CCCGCAAG, the “PBM E-score” value falls from 0.0856 to -0.227.

Compared with GAGTCAAC, AAGGATAT is higher in “PBM E-score” value: -0.0842 for the first, 0.167 for the second.

Compared with TGAGTGCA, AAGAAGGA is higher in “PBM E-score” value: -0.0696 for the first, 0.0908 for the second.

First: GACACCGC
Second: CCGCAGAC
The “PBM E-score” value of the first is lower: -0.13 for the first, 0.0939 for the second.

First: CGTTTTTC
Second: ATTAAGGG
The “PBM E-score” value of the first is higher: 0.157 for the first, 0.0581 for the second.

First: CCAAGGCG
Second: ATAAGTAC
The “PBM E-score” value of the first is lower: -0.0959 for the first, 0.111 for the second.

Compared with ACAGAGGC, AAAAAAGG is higher in “PBM E-score” value: -0.328 for the first, 0.244 for the second.

First: CTCTAGGA
Second: CTGAAATC
The “PBM E-score” value of the first is lower: -0.286 for the first, -0.0192 for the second.

First: ACAGTGTC
Second: TGTCAAAA
The “PBM E-score” value of the first is lower: 0.0333 for the first, 0.163 for the second.

Compared with AATTGTAT, ATTTTGGA is higher in “PBM E-score” value: 0.0116 for the first, 0.148 for the second.

First: CACTTCCC
Second: ACACTCAG
The “PBM E-score” value of the first is higher: -0.128 for the first, -0.141 for the second.

First: AGGAAATA
Second: CTTCACCA
The “PBM E-score” value of the first is higher: 0.138 for the first, -0.13 for the second.

Going from CCCACGTA to AGTCATGC, the “PBM E-score” value rises from -0.0821 to -0.0295.

First: CCGTACGA
Second: CCGGCCGC
The “PBM E-score” value of the first is higher: -0.0159 for the first, -0.139 for the second.

First: GAAAATCA
Second: CAGGACAA
The “PBM E-score” value of the first is lower: 0.118 for the first, 0.144 for the second.

First: AGTACTGC
Second: ATGTGCTG
The “PBM E-score” value of the first is lower: -0.147 for the first, 0.133 for the second.

First: GTCTGTGA
Second: AGGAACCA
The “PBM E-score” value of the first is higher: 0.0417 for the first, -0.268 for the second.

First: CCAATCAC
Second: TCTAACAA
The “PBM E-score” value of the first is lower: -0.0351 for the first, 0.127 for the second.

Compared with TCCCGGCA, CCACCCCC is higher in “PBM E-score” value: -0.0651 for the first, -0.0505 for the second.

Compared with CTTGTATA, CAAGAAAG is higher in “PBM E-score” value: -0.0388 for the first, 0.141 for the second.

Going from GTTGTGTA to AATTCTAT, the “PBM E-score” value falls from 0.0886 to 0.0786.

First: CCTTTGCG
Second: ACTGAATC
The “PBM E-score” value of the first is higher: 0.162 for the first, 0.0261 for the second.

Going from GAGTCGTA to GGCCCGTA, the “PBM E-score” value falls from -0.179 to -0.18.

First: AGCCCTGA
Second: AGGAATCA
The “PBM E-score” value of the first is lower: -0.222 for the first, 0.0528 for the second.

Compared with CTTCCGAA, TCCTAAAA is lower in “PBM E-score” value: 0.104 for the first, 0.0803 for the second.

Going from CACCAGAA to AGGACACA, the “PBM E-score” value rises from -0.0374 to 0.00384.

Going from GATGACGA to GATCGTTA, the “PBM E-score” value falls from 0.0199 to -0.0412.

Compared with CCAGGCGA, ATCAGCTG is higher in “PBM E-score” value: -0.162 for the first, 0.0946 for the second.

Going from CCAATGAC to CGGCCACC, the “PBM E-score” value falls from -0.0488 to -0.0949.

Compared with TAACCCCA, GCATCGAC is higher in “PBM E-score” value: -0.157 for the first, 0.0526 for the second.

Compared with ATGCGGCC, GTCAGACA is lower in “PBM E-score” value: 0.0224 for the first, -0.0151 for the second.

Going from CCCTTGCA to GGAGACGA, the “PBM E-score” value rises from -0.182 to -0.0114.

Compared with GCCATGAA, CATACGCG is higher in “PBM E-score” value: -0.0142 for the first, -0.00363 for the second.

Going from AATTGCTG to ATACCAAC, the “PBM E-score” value falls from 0.0957 to 0.0815.

First: ACACGGCT
Second: ATAGCATC
The “PBM E-score” value of the first is higher: -0.0225 for the first, -0.082 for the second.

Compared with AATTTCGC, ATACGGCG is lower in “PBM E-score” value: 0.155 for the first, 0.15 for the second.

Compared with GATCCGGA, ATATTTAG is higher in “PBM E-score” value: -0.0296 for the first, 0.157 for the second.

First: ATACACAG
Second: GGGTTATA
The “PBM E-score” value of the first is higher: -0.054 for the first, -0.0764 for the second.

Going from CATAAAGC to AGGAATAC, the “PBM E-score” value falls from -0.0171 to -0.0374.

Compared with TGGGGCAA, CGGGTATC is higher in “PBM E-score” value: -0.0548 for the first, 0.0554 for the second.

First: GCGGTCGA
Second: TTAGGAAA
The “PBM E-score” value of the first is lower: 0.00673 for the first, 0.292 for the second.

First: CTAGAAGA
Second: AAGCTCCA
The “PBM E-score” value of the first is higher: 0.106 for the first, -0.0211 for the second.

Going from ACCGGCCC to CGCCAGAA, the “PBM E-score” value rises from -0.273 to 0.0935.

Going from CATTCCAA to GTAAGTGA, the “PBM E-score” value rises from -0.131 to -0.0696.

Going from CGATATGA to ACTTGCTA, the “PBM E-score” value falls from 0.0545 to -0.0892.

First: ACAGGTTC
Second: AAGTAGGA
The “PBM E-score” value of the first is lower: -0.119 for the first, -0.102 for the second.

Compared with CGATACCG, CCCATCGA is higher in “PBM E-score” value: -0.129 for the first, 0.125 for the second.

First: AGCAGCCC
Second: ACATAAAG
The “PBM E-score” value of the first is lower: -0.198 for the first, 0.12 for the second.

Going from GGGCTCTA to TATGCAGA, the “PBM E-score” value falls from -0.0629 to -0.105.

Going from CATTAAGA to CAGTTTTC, the “PBM E-score” value rises from -0.0403 to 0.105.

Going from AGCCTGAG to AATGTCAA, the “PBM E-score” value rises from -0.163 to 0.165.

First: AGACAACC
Second: ATGCACAG
The “PBM E-score” value of the first is higher: 0.0678 for the first, -0.111 for the second.

Going from AAAACAGG to CAGTCAAC, the “PBM E-score” value falls from -0.0182 to -0.114.

First: GGTCGGAA
Second: AGGACGTA
The “PBM E-score” value of the first is higher: 0.15 for the first, -0.224 for the second.

Going from ATGAGTCG to GACAGCTA, the “PBM E-score” value falls from -0.164 to -0.215.

First: ATTCTGGG
Second: CCCGCGGA
The “PBM E-score” value of the first is lower: -0.0782 for the first, 0.122 for the second.

Compared with AAACCAAG, AATGCTGG is lower in “PBM E-score” value: 0.195 for the first, 0.074 for the second.

First: AGACTCGC
Second: ACGGGGCA
The “PBM E-score” value of the first is lower: -0.201 for the first, -0.123 for the second.

Going from CATACTCC to AGTTGCTG, the “PBM E-score” value falls from 0.0984 to -0.127.

Compared with AAGATACG, CGCATAAG is lower in “PBM E-score” value: 0.08 for the first, 0.0279 for the second.

Compared with GCTGAAAC, AATTACTA is lower in “PBM E-score” value: 0.485 for the first, 0.00237 for the second.

Compared with CATATTAC, ACCCCCGT is lower in “PBM E-score” value: 0.157 for the first, -0.079 for the second.

Compared with CCTTACGC, CTCCTCCC is lower in “PBM E-score” value: -0.062 for the first, -0.0845 for the second.

First: AATTGCTA
Second: GCAGATGA
The “PBM E-score” value of the first is higher: 0.0459 for the first, -0.0285 for the second.

Compared with ACCAAGGC, CAAACCGG is higher in “PBM E-score” value: -0.141 for the first, 0.158 for the second.

Compared with CGCAAACG, CGGCGCTA is lower in “PBM E-score” value: 0.0321 for the first, -0.12 for the second.

Compared with AGCAGGTA, GTATAGAC is lower in “PBM E-score” value: 0.0954 for the first, -0.0331 for the second.

First: CCTATGTA
Second: AGGGTAAC
The “PBM E-score” value of the first is lower: -0.162 for the first, 0.00389 for the second.

Going from CGATGAGA to ATTATCAG, the “PBM E-score” value rises from 0.0105 to 0.0839.
